Laboratory results published in article PMC4336329 (PLoS ONE, 2015).
Out of some 310,000 compounds screened, about 2,200 (0.71%) showed an effect of 50% or more. The effect is printed as a negative number. This is one part of the list.

These molecules were tested against human ether-à-go-go-related gene (hERG) potassium channel (human, UniProt Q12809) (assay: primary screen, population patch clamp on CHO cells stably expressing hERG).
human ether-à-go-go-related gene (hERG) potassium channel, sequence (Q12809 whole entry, looked up): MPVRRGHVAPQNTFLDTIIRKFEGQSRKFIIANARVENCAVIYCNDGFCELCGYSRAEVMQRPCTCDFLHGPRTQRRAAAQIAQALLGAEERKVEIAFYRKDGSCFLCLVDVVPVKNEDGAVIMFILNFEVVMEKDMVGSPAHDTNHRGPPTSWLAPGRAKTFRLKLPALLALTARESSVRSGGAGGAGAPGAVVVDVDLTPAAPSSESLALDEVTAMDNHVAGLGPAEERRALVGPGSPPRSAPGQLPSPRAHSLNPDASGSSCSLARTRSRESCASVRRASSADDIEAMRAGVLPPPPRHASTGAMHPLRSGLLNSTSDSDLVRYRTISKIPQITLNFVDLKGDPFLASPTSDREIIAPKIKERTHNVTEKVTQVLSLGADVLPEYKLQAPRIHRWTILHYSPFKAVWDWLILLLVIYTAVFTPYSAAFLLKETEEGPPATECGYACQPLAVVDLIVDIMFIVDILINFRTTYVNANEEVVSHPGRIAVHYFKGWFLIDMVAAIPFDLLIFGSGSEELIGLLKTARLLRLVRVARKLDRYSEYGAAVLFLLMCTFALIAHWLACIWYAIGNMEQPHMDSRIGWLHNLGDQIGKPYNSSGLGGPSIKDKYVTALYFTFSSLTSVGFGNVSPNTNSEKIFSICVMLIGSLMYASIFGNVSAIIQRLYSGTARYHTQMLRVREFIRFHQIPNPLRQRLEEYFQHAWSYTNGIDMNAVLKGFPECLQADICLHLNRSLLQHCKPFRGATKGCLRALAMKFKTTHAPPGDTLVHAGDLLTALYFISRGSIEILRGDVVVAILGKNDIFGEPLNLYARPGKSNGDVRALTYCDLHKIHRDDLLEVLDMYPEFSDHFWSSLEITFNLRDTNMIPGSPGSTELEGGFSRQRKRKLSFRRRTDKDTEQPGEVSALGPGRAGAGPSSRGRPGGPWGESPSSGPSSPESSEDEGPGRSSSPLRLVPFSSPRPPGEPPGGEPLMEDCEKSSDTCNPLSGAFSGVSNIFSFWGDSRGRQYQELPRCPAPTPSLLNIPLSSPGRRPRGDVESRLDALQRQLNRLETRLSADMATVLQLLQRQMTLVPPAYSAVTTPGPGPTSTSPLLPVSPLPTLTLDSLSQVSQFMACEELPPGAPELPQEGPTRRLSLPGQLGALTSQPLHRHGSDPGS

Row | Structure (SMILES) | hERG current change (%, negative = inhibition) at 1uM [%]
1 | COc1ccc(CC(=O)Nc2ccc(S(=O)(=O)NC(C)C)cc2)cc1 | 0.227
2 | O=C(CSCC(=O)N1CCCCC1)Nc1nc(-c2ccccc2)c(-c2ccccc2)s1 | 16.5
3 | Cc1ccc2c(CC(=O)N(C)c3c(N)n(Cc4ccccc4)c(=O)[nH]c3=O)coc2c1 | 8.06
4 | Cn1c(=O)oc2cc(S(=O)(=O)N3CCCC(C(=O)Nc4ccccn4)C3)ccc21 (stereo not shown) | 5.85
5 | Cc1nn(C)cc1CNC(=O)c1cccc(Br)c1 | 5.11
6 | CCOC(=O)CSc1ccc(S(=O)(=O)N2CCC(C)CC2)cc1[N+](=O)[O-] | 11.9
7 | CC(CN1C(C)CCCC1C)OC(=O)c1ccc(Cl)cc1Cl (stereo not shown) | -8.9
8 | O=C(Nc1nncs1)C1(c2ccccc2)CCCC1 | 4.19
9 | O=C(NCCc1ccccc1)C(=O)NCC1CCNCC1 | 0.917
10 | Cc1ccccc1-n1c(=O)cc(N2CCN(Cc3ccccc3)CC2)[nH]c1=O | 8.64
11 | CCC(CC)N1CCN(CCc2ccccc2)C(CCO)C1 (stereo not shown) | 6.29
12 | Cc1onc(-c2ccccc2Cl)c1C(=O)O/N=C(\N)c1ccc([N+](=O)[O-])o1 | -11.2
13 | CCN1C(=O)C(=O)N(Cc2ccc(OC)c(F)c2)C1=O | 9.94
14 | O=C(Nc1ccc(F)cc1)Nc1nnc(Cc2ccccc2)s1 | 13.5
15 | Cc1sc2nc(C3CC3)nc(N3CCN(C(=O)c4ccc(F)cc4)CC3)c2c1C.Cl | 1.1
16 | Cn1c(=O)c2ccccc2n2c(CCl)nnc12 | 7.44
17 | Cc1c(CN2CCCC(C(=O)Nc3cccc(-n4cccn4)c3)C2)cnn1C (stereo not shown) | 11.7
18 | CCCCSC1(SCCCC)N=C(N)C2(C#N)C(c3ccccc3)NC(C)=CC12C#N (stereo not shown) | 7.48
19 | O=P(O)(O)C12CC3CC(CC(C3)C1)C2 | 7.66
20 | O=C(C[n+]1cc(-c2ccccc2)n2c1CCCCC2)c1ccc(Cl)cc1.[Br-] | 0.871
21 | CC1(C)CC(=O)C(C=Nc2ccc(O)c(N=CC3=C(O)CC(C)(C)CC3=O)c2)=C(O)C1 | 4.95
22 | NC(=O)c1ccc(NC(=O)c2cncn2-c2ccccc2)cc1 | 17.7

Row | Structure (SMILES) | hERG current change (%, negative = inhibition) at 1uM [%]
23 | COc1ccc(OC)c(NC(=O)CSc2nnc(-c3cccnc3)s2)c1 | 0.389
24 | CCN(CC)Cc1c(C(=O)N/N=C/c2ccc(C)o2)nnn1-c1nonc1N | -0.651
25 | Br.C=CCn1c(=N)n(CC(=O)c2ccc(Cl)cc2)c2ccccc21 | -0.66
26 | COc1ccc(-c2nnn(CC(=O)Nc3ccc4c(c3)OCCO4)n2)cc1OC | 10.5
27 | Cc1ccc(NC(=S)NCc2cccn2C)cc1 | -2.66
28 | COCCn1nnnc1C(c1cc2cc(C)ccc2[nH]c1=O)N1CCN(C2CCCCC2)CC1 (stereo not shown) | -5.14
29 | CCCc1cc(=O)oc2cc(C)c3c(C)coc3c12 | 11.8
30 | CCOC(=O)C(=CNc1ccc(Oc2cccnc2)nc1)C(=O)OCC | 7.04
31 | CC1(C)O[C@@H]2C[C@H]3[C@@H]4C[C@H](F)C5=CC(=O)C=C[C@]5(C)[C@H]4[C@@H](O)C[C@]3(C)[C@]2(C(=O)CO)O1 | 16.5
32 | COc1ccc(S(=O)(=O)N(C)c2ccc(C(=O)NCc3ccncc3)cc2)cc1 | -2.09
33 | CC(C)C(=O)NNC(=O)CSc1nc(C2CCCCC2)nc2ccccc12 | 6.83
34 | Cc1cccc(NC(=O)c2ccc(COc3ccc4ccccc4c3)o2)n1 | 3.29
35 | Cc1ccccc1NC(=O)CN1C(=O)CSc2ccc(S(=O)(=O)N3CCCC3)cc21 | 14.4
36 | O=C(Nc1ccccc1)C1CCCN(C(=O)c2ccc(F)cc2)C1 (stereo not shown) | -6.42
37 | COCc1cc(=O)[nH]c(SCC(=O)Nc2ccccc2)n1 | 4.15
38 | CC(C)CCNC(=O)CCCOc1ccccc1 | -1.8
39 | COc1ccc(NC(=O)c2ccc(OC(F)F)cc2)cc1Cl | 6.28
40 | COc1cccc(C=Nc2cc(C)on2)c1O | 10.1
41 | COc1ccccc1C1C2=C(CC(C)(C)CC2=O)N(CC(=O)O)C2=C1C(=O)CC(C)(C)C2 | 19.2
42 | Cc1cc(C)nc(N/C(=N\S(=O)(=O)Cc2ccccc2)Nc2ccccc2Br)n1 | 12.2
43 | COc1ccc(N2CCN(C(=O)CC34CC5CC(CC(C5)C3)C4)CC2)c([N+](=O)[O-])c1 | 10.3
44 | Cn1c(=O)c2sccc2n2c(CCCC(=O)Nc3ccccc3)nnc12 | 11.7

Row | Structure (SMILES) | hERG current change (%, negative = inhibition) at 1uM [%]
45 | O=C(CCN=C1NS(=O)(=O)c2ccccc21)OCc1nnc(-c2ccccc2)o1 | 18.4
46 | CCOC(=O)C1=C(COC(=O)CNC(=O)c2cccc(C)c2)NC(=O)NC1C (stereo not shown) | 6.58
47 | C=CCOc1ccc(Br)cc1CNC(C)(C)C.Cl | 6.36
48 | Cc1ccc(C)c(NC(=O)CN(C)C(=O)/C=C/c2ccco2)c1 | 12.2
49 | S=C(c1cccs1)N1CCCC1 | 13.8
50 | CCCCc1n(CC(=O)c2ccc(Cl)cc2)c2ccccc2[n+]1C.[Br-] | 10.7
51 | C=CCn1c(-c2csc3ccccc23)n[nH]c1=S | 14.6
52 | COc1cc(C)nc(NCc2ccccc2)n1 | 15.8
53 | COc1ccccc1N1CCN(S(=O)(=O)c2c(C(=O)N3CCOCC3)c(C)n(C)c2C)CC1 | 14.6
54 | COc1ccc(C)cc1S(=O)(=O)N(C)CC(=O)Nc1ccc2c(c1)OCCO2 | 5.96
55 | Clc1ccc(C2N3CCCN23)c(Cl)c1 (stereo not shown) | 18
56 | C(=N\Nc1nc(N2CCOCC2)nc(N2CCOCC2)n1)/c1cccnc1 | -0.665
57 | COc1ccc(N(CC(=O)Nc2ccc(S(=O)(=O)N3CCCC3)cc2)S(C)(=O)=O)cc1OC | 5.38
58 | CC1CC(C)(C)Nc2ccc(OC(=O)c3ccco3)cc21 (stereo not shown) | 14.7
59 | CC(C)(C)OC(=O)NNC(=O)NC12CC3CC(CC(C3)C1)C2 | 4.29
60 | Cc1cccc(N=Cc2cc3c(cc2[N+](=O)[O-])OCO3)c1 | 9.6
61 | O=S(=O)(c1ccccc1)c1cc(O)ccc1O | 9.5
62 | O=C1COc2ccc(S(=O)(=O)CCC(=O)N3CCN(c4cccc(Cl)c4)CC3)cc2N1 | 8.02
63 | O=C(NCCN1CCN(c2cccc(Cl)c2)CC1)Nc1ccccc1 | -1.13
64 | O=C(CNC(=O)c1ccccc1)NCCc1ccc(O)c(O)c1 | 9.02
65 | NC(=O)NC(=O)CN1C(=O)NC(c2ccccc2)(c2ccccc2)C1=O | 22.1
66 | O=C(CCCCn1c(=O)[nH]c2ccsc2c1=O)NCC1CCCO1 (stereo not shown) | 11.6

Row | Structure (SMILES) | hERG current change (%, negative = inhibition) at 1uM [%]
67 | CS(=O)(=O)N(CC(=O)N1CCN(Cc2ccccc2)CC1)c1ccc(F)cc1 | 6.89
68 | Cc1ccc2[nH]c(=O)c3cc(C(=O)N(C)c4ccccc4C)sc3c2c1 | 9.58
69 | O=C(Cn1cnc2ccccc2c1=O)NCCC(=O)Nc1ccccc1C(F)(F)F | 15.9
70 | CC(C)Cn1c(Br)nc2c1c(=O)n(CCC#N)c(=O)n2C | -15.9
71 | CCc1ccc(CN2C(=O)c3ccccc3C2C(=O)NCC2CCCO2)cc1 (stereo not shown) | 8.44
72 | O=C1/C(=C\c2ccccc2)C2OCC=C3CN4CCC56c7ccccc7N1C5C2C3CC46 (stereo not shown) | -6.15
73 | COc1ccc(NC(=O)NNC(=O)c2ccccc2-n2cccc2)cc1OC | 4.18
74 | Cc1cc(N)n(-c2ccc(C(=O)O)cc2)n1.Cl | 5.84
75 | Cc1cc(NS(=O)(=O)c2ccc(C3CCCCC3)cc2)no1 | 16.5
76 | COC(=O)C(CC(=O)c1cccc(OC)c1)c1ccc(F)cc1 (stereo not shown) | 14.8
77 | Br.N=c1n(CC(=O)O)c2ccccc2n1Cc1ccccc1Cl | 7.86
78 | COCCNC(=S)Nc1cc(OC)c(NC(=O)c2ccco2)cc1OC | 4.64
79 | Cc1c(/C=N/NC(=O)c2cccnc2)c2ccccc2n1Cc1ccccc1 | 13
80 | CC1=NN(C(=O)c2ccc(Cn3cc(Br)c([N+](=O)[O-])n3)o2)C(O)(C(F)(F)F)C1 (stereo not shown) | 6.39
81 | Cc1cc(C)nc(SCc2nnc(SCC(=O)Nc3nc(-c4ccccc4)cs3)n2-c2ccccc2)n1 | 5.19
82 | O=C(NCc1ccco1)c1cnn2c(C(F)(F)F)cc(-c3ccccc3)nc12 | 8.62
83 | Cc1ccc(C2=CC(c3ccc(N(C)C)cc3)n3nnnc3N2)cc1 (stereo not shown) | 11.7
84 | C#C[C@]1(O)CC[C@H]2[C@@H]3CCc4cc(OC)ccc4[C@H]3CC[C@@]21C | 16.8
85 | CCOc1ccc(/C=C2/C(=N)N3OC(C)=CC3=NC2=O)cc1OC | 9.54
86 | S=C(NCCc1ccccn1)Nc1ccc(Cl)c(Cl)c1 | 14
87 | O=C(COc1ccc(Cl)cc1)N1CCN(C/C=C/c2ccccc2)CC1 | -36.5
88 | CC(=O)OCc1c(C)cc(C)c(/C=C(/C#N)C(N)=O)c1C | 6.27
